One assay deals with T1, wild-type trastuzumab.
T1 construct: also called WT T
Briefly: FACS, Alexa 488 labeled meditope-Fc on SKBR3 cells pre-incubated with wild-type trastuzumab [lower panel].

Another assay addresses T2, HER2 on SKBR3 cells (UniProt P04626).
T2 construct: whole, on cells; also called HER2-expressing cells (SKBR3)
As to the kind of experiment: FACS, SKBR3 cells without antibody. For orientation: Flow cytometry measures light scatter and fluorescence of single cells or particles in a stream.

T1 sequence (heavy, as listed by the source limits assumed, chain 1 of 2, other chains not shown): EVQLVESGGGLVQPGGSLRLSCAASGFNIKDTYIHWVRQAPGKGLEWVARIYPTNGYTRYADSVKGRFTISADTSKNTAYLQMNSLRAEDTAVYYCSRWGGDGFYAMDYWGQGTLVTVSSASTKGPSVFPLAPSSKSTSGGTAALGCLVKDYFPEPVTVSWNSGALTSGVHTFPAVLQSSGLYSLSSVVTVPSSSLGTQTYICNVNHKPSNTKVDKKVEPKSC

With CQFDLSTRRLKCGGGSGSGSGGSSGGGGG[… human IgG1 Fc …] (Fc fusion, also called bivalent meditope-Fc), the binding result with wild-type trastuzumab and with HER2 on SKBR3 cells was “no binding” each time.

Source of the values: US20140113348A1 (CITY OF HOPE, published 2014).
